# Measured values taken from the BET-seq Pho4 binding data (Le et al. 2018).
# The other results are listed elsewhere or left out. These are noisy estimates, calculated here from bound and input reads.
# Target: T1, Pho4 (S. cerevisiae) (UniProt P07270)
# T1 sequence: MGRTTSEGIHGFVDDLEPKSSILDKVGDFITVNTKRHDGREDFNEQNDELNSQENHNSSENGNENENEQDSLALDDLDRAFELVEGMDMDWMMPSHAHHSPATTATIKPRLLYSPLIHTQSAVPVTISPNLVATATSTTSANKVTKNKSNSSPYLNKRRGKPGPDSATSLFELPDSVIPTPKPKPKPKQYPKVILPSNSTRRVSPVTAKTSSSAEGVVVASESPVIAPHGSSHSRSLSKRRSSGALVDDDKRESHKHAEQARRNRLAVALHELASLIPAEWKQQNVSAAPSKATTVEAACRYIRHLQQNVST
# Experiment: relative binding free energy (BET-seq); higher = weaker binding
# Conditions: reference: library average
row,Sequence,relative binding free energy
1,TTTGGCACGTGAGCAA,0.04 kcal/mol
2,TCGGTCACGTGTAAAT,0.36 kcal/mol
3,GGGGGCACGTGGAGTA,-0.16 kcal/mol
4,GGGCTCACGTGTAGTT,0.35 kcal/mol
5,TTGAGCACGTGGTTTA,-0.21 kcal/mol
6,GTGCGCACGTGTGTGG,-0.07 kcal/mol
7,CTGGACACGTGGGGAG,-0.08 kcal/mol
8,TGTTGCACGTGAGCAG,0.24 kcal/mol
9,AGTTACACGTGGCGGT,0.15 kcal/mol
10,TACTACACGTGATGGT,0.24 kcal/mol
11,TGCGGCACGTGCTGGA,-0.05 kcal/mol
12,TGTGGCACGTGAGTTG,0.17 kcal/mol
13,TCTGGCACGTGAGGTC,0.17 kcal/mol
14,GGGTTCACGTGACATA,0.38 kcal/mol
15,TTGGTCACGTGGGGTA,0.05 kcal/mol
16,CGTTGCACGTGAGGTA,0.16 kcal/mol
17,AAAGTCACGTGCGTTT,0.15 kcal/mol
18,TACATCACGTGGTGTA,-0.09 kcal/mol
19,TGGAGCACGTGTAGTG,0.02 kcal/mol
20,GCATTCACGTGCGGGG,0.26 kcal/mol
21,ATGTTCACGTGTACGG,0.16 kcal/mol
22,ATCTTCACGTGGGTCT,0.2 kcal/mol
23,TGCAACACGTGAGTTG,0.16 kcal/mol

row,Sequence,relative binding free energy
1,TTCTACACGTGGGCTG,-0.04 kcal/mol
2,TAACTCACGTGGATTT,0.3 kcal/mol
3,GAGCGCACGTGGGAGA,0.04 kcal/mol
4,GGTTGCACGTGAGTAA,0.29 kcal/mol
5,GGTACCACGTGATGTT,0.02 kcal/mol
6,TTTTTCACGTGTTAGA,0.3 kcal/mol
7,ATAATCACGTGTCTTG,0.13 kcal/mol
8,TATTTCACGTGTCCGT,0.21 kcal/mol
9,CGTGTCACGTGAGGAG,0.16 kcal/mol
10,TTTGACACGTGCAGGG,-0.06 kcal/mol
11,TTTGTCACGTGCCTAT,0 kcal/mol
12,TTGTCCACGTGGGTGG,-0.13 kcal/mol
13,ATGTACACGTGGGTAA,-0.1 kcal/mol
14,CTGTGCACGTGCATGT,-0.18 kcal/mol
15,GCGCTCACGTGGGGGT,0.04 kcal/mol
16,TGTATCACGTGATGAA,0.26 kcal/mol
17,GAGGGCACGTGTTGCA,-0.16 kcal/mol
18,TGGATCACGTGAGGGC,0.31 kcal/mol
19,GAGGCCACGTGGGCTG,-0.06 kcal/mol
20,TGTCCCACGTGGTGAG,-0.07 kcal/mol
21,GTAGTCACGTGGGTGT,0.03 kcal/mol
22,TGAGACACGTGTGAGT,0.22 kcal/mol
23,AGTTACACGTGAAAGT,0.3 kcal/mol

row,Sequence,relative binding free energy
1,GAAGGCACGTGTTCAG,0.05 kcal/mol
2,AATGGCACGTGTATTA,0.05 kcal/mol
3,TCATTCACGTGTTTAG,0.24 kcal/mol
4,AAAGTCACGTGGTTTG,0.03 kcal/mol
5,TTTGGCACGTGCGCTC,-0.05 kcal/mol
6,TTGGACACGTGTTTTC,0.04 kcal/mol
7,GAGTACACGTGAAGTG,0.46 kcal/mol
8,TATTGCACGTGGGCAT,-0.23 kcal/mol
9,GGCAGCACGTGAGTAT,0.33 kcal/mol
10,TGGTTCACGTGTCTTA,0.21 kcal/mol
11,ATTGACACGTGTCAGT,0.14 kcal/mol
12,AGTGCCACGTGGGTCT,-0.18 kcal/mol
13,GTTGGCACGTGCAGCG,-0.15 kcal/mol
14,AGGTTCACGTGGACTT,0.34 kcal/mol
15,GTTGGCACGTGGGGGT,-0.09 kcal/mol
16,TTATACACGTGGTGTC,-0.06 kcal/mol
17,AGATCCACGTGGGGAT,0.05 kcal/mol
18,CTCGTCACGTGAAGGT,0.29 kcal/mol
19,TGGACCACGTGGTGTG,-0.07 kcal/mol
20,GATCTCACGTGTGGGG,0.4 kcal/mol
21,TATTACACGTGTTTAG,0.08 kcal/mol
22,TTTTGCACGTGTGGGG,0.15 kcal/mol
23,GGGTTCACGTGTGTAG,0.26 kcal/mol

row,Sequence,relative binding free energy
1,ATAAGCACGTGTGCGT,-0.21 kcal/mol
2,TTGAACACGTGGAGTA,0.14 kcal/mol
3,AGCGGCACGTGGTGAA,-0.05 kcal/mol
4,TTGTGCACGTGCTATT,0.07 kcal/mol
5,AAGTTCACGTGATGAA,0.36 kcal/mol
6,CGGTTCACGTGTTTGT,0.3 kcal/mol
7,TCGGGCACGTGGCGTT,-0.22 kcal/mol
8,GGTAACACGTGGTAGG,-0.16 kcal/mol
9,TACTTCACGTGAGGAT,0.43 kcal/mol
10,TTTATCACGTGGCGTT,0.15 kcal/mol
11,ATTGACACGTGGGCGT,-0.11 kcal/mol
12,AGCGGCACGTGGGGGT,-0.17 kcal/mol
13,CGTTTCACGTGGGAGC,0.23 kcal/mol
14,TTATCCACGTGTTATT,-0.08 kcal/mol
15,TTAATCACGTGTGGCG,0.2 kcal/mol
16,AAATACACGTGTGGGC,0.24 kcal/mol
17,TCCGTCACGTGTGGGT,0.06 kcal/mol
18,TGATGCACGTGGTGGA,0.06 kcal/mol
19,ATTCACACGTGAAGTG,0.29 kcal/mol
20,CCTGGCACGTGTGAGT,0.03 kcal/mol
21,GTCGACACGTGGGGAT,-0.08 kcal/mol
22,TATTGCACGTGTTGAT,0.02 kcal/mol
23,TTTTCCACGTGGCTGT,0.06 kcal/mol

row,Sequence,relative binding free energy
1,GGTTACACGTGTTTGG,0.2 kcal/mol
2,CAGGTCACGTGGTTTG,0.15 kcal/mol
3,TAGGGCACGTGATCGT,-0.21 kcal/mol
4,TGGTCCACGTGGCGGG,0.01 kcal/mol
5,GGTGACACGTGCTCGG,0.03 kcal/mol
6,TGTCTCACGTGGAAGT,0.35 kcal/mol
7,GTGATCACGTGTTACG,0.17 kcal/mol
8,GCGGTCACGTGGCGTT,0.07 kcal/mol
9,AGCTTCACGTGGGAGA,0.23 kcal/mol
10,TCGGGCACGTGTGTTC,-0.16 kcal/mol
11,AAGGGCACGTGGTTTG,-0.12 kcal/mol
12,TACGTCACGTGGCTTT,0.08 kcal/mol
13,ATGGGCACGTGATCGA,-0.05 kcal/mol
14,GTGTTCACGTGAGCGA,0.19 kcal/mol
15,TCGGTCACGTGCGTGG,0.08 kcal/mol
16,GGATTCACGTGTGCGG,0.27 kcal/mol
17,AGGTGCACGTGGTGCC,-0.25 kcal/mol
18,AGTTTCACGTGGGGCG,0.16 kcal/mol
19,GGGGTCACGTGTCCAG,0.06 kcal/mol
20,TGAGTCACGTGATCGG,0.1 kcal/mol
21,AGAGGCACGTGGTCTT,-0.13 kcal/mol
22,AGGTGCACGTGTTGCA,0.04 kcal/mol
23,GTGTACACGTGTTGAT,0.14 kcal/mol
